PubChem BioAssay (NCATS)
The other results are listed elsewhere or left out. Further columns of the screen follow, without active or inactive calls. The list favours compounds with an active or inconclusive main result.

Assay: qHTS Assay for Lipid Storage Modulators (AID 1519)
Details: Drosophila S3 cells, BODIPY lipid droplet/cell ratio, laser cytometry; measured here: cell count channel max response; cells loaded with oleic acid
In short: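 Cells seeded at 5,000 per well were treated with compounds over a concentration series and loaded with oleic acid (400 uM, as added). Lipid droplet fluorescence (488 nm excitation, 500-530 nm channel) was read by laser-scanning cytometry and normalized to 20 uM Triacsin C.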
`COc1ccc2[nH]c(-c3ccccc3)c(CCNC(C)=O)c2c1` showed a max response of 104%.
With `COc1ccccc1CNc1ccnc(-c2c(C)noc2C)n1` the max response was 17.6%.
`C=CC(C1=CC(=O)C(OC)=C(OC)C1=O)c1ccccc1` (stereo not given) showed a max response of -51.3%.
`c1cncc(-c2cc(NCc3cccs3)ncn2)c1` gave a max response of 38.7%.
`O=C(c1cnccn1)N1CCC[C@@]2(CCN(Cc3ccncc3)C2)C1` gave a max response of 16.7%.
Work on `C=C1C(=O)O[C@@H]2C3OC3(C)CC/C=C(\C)CC[C@@H]12` (stereo not given in full) yielded a max response of 73.3%.
With `CCNc1ncc2nc(CCc3ccccc3)c(=O)n(Cc3cccc(OC)c3)c2n1` the max response was 17.7%.
Molecule `CN1CCN(c2ncnc3ccc(-c4cccnc4)cc23)CC1` has a max response of 28.7%.
Work on `Cn1cc(-c2nc3cncnc3n(Cc3ccccc3Cl)c2=O)c2ccccc21` yielded a max response of 60.9%.
With `O=c1[nH]c2cc(Cl)ccc2c(O)c1-c1cccc(Oc2ccccc2)c1` the max response was 71%.
With `COc1ccc(-c2coc3ccc(OC4OC(COC(C)=O)C(OC(C)=O)C(OC(C)=O)C4OC(C)=O)c(OC(C)=O)c3c2=O)cc1` (stereo not given) the max response was 43.6%.
For `Cc1ccccc1-c1cc(NCc2cccnc2)ncn1`, the max response was 36.3%.
`N#Cc1ccc(CN2CC3(CCN(C(=O)c4csnn4)CC3)C2)cc1` showed a max response of 37.2%.
Molecule `Cn1ccc2cc(NC(=O)Nc3cccnc3)ccc21` has a max response of 114%.
`CNc1cc(OC)c(C(=O)N[C@@H]2CCN(Cc3ccccc3)[C@H]2C)cc1Cl` showed a max response of 108%.
Molecule `COCCn1c(=O)c(-c2cccc(Cl)c2)nc2cncnc21` has a max response of 35.2%.
`CC(C)[C@H](CO)Nc1nc(Nc2cc(N)cc(Cl)c2)c2ncn(C(C)C)c2n1` showed a max response of 70.3%.
`COc1cc2c(cc1OC)C(c1ccc(N)cc1)=NNC(=O)C2` gave a max response of 107%.
`CCNc1ncc2nc(-c3cccs3)c(=O)n(Cc3cccc(OC)c3)c2n1` showed a max response of 30.1%.
`COc1ccccc1N1CCN(CCCCNC(=O)c2ccc(-c3ccc(C(C)=O)cc3)cc2)CC1` gave a max response of 48.1%.
`CN(C)c1ncc2nc(-c3ccc(Cl)cc3)c(=O)n(C[C@H]3CCCO3)c2n1` showed a max response of 40.6%.
`O=C(O)c1cc(=O)cc(C(=O)O)[nH]1` showed a max response of 31.8%.
`COCCn1c(=O)c(-c2cn(C)c3ccccc23)nc2cnc(Oc3ccccc3)nc21` gave a max response of 27.3%.
Work on `Cc1cnc(CNc2ncnc3ccc(-c4ccc(N(C)C)cc4)cc23)cn1` yielded a max response of 25.4%.
`COc1ccc(Oc2ncc3nc(C)c(=O)n(-c4ccc(OC)cc4)c3n2)cc1` showed a max response of 19%.
For `CCOC(=O)C1=C(O)C(=O)N(Cc2ccccc2)C1`, the max response was 28.7%.
Work on `N=C(N)SCCc1ccc(OCc2ccc([N+](=O)[O-])cc2)cc1` yielded a max response of 51.6%.
Work on `CNc1nc(-c2c(C)noc2C)nc2ccccc12` yielded a max response of 0.604%.
`CN1CCN(c2ncc3nc(-c4cn(C)c5ccccc45)c(=O)n(-c4ccccc4)c3n2)CC1` showed a max response of 30.7%.
Work on `COc1cccc(Cn2c(=O)c(-c3cccs3)nc3cnc(N4CCOCC4)nc32)c1` yielded a max response of 24.8%.
For `CN(Cc1ccco1)c1ncncc1-c1cccnc1`, the max response was 36.2%.
Work on `CNC(=O)[C@H]1O[C@H](n2cnc3c(NCc4cccc(I)c4)ncnc32)[C@@H](O)[C@@H]1O` yielded a max response of 64.1%.
Molecule `CN(C)C/C=C(\c1ccc(Br)cc1)c1cccnc1` has a max response of 66.3%.
Molecule `C=C1C(=O)OC2C[C@@]3(C)CCCC(=C)[C@@H]3CC12` (stereo not given in full) has a max response of 51.9%.
`COc1ncc2nc(-c3cc(F)cc(F)c3)c(=O)n(C[C@H]3CCCO3)c2n1` showed a max response of 24.9%.
In the case of `Cc1noc(C)c1-c1ccc2ncnc(NCc3cccs3)c2c1`, the max response is reported as 6.59%.
`COc1ccc(C(=O)N2CCC3(CCN(C(=O)Nc4ccccc4)CC3)CC2)cc1` showed a max response of 27.1%.
Work on `COc1ccc(CNc2ccnc(-c3ccc(N(C)C)cc3)n2)c(OC)c1` yielded a max response of 22%.
`CN(C)C(=O)c1ccc(-c2ccc3ncnc(NCCN4CCOCC4)c3c2)cc1` showed a max response of 34.6%.
Work on `OCCNCCCOc1cccc(Cl)c1Cl` yielded a max response of -7.53%.
